Data on 37 compounds can be found in PubChem BioAssay (NCI).

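Tested at 5 concentrations; 48 h exposure; 96-well plates; endpoints linearly interpolated, else capped at highest concentration. GI50 marks 50% less growth. TGI: concentration producing complete growth inhibition.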

The test system of the assay is NCI-H322M lung. Nature of the assay: growth of human tumour cells (NCI), 48 h.

In the case of `CCNC(=O)NNc1ncnc2c1c(-c1ccc(Cl)cc1)cn2-c1ccc(C)cc1`, the TGI came to 62.8 µM.

In turn, `CCOc1cc(C(=O)O)c2c(ccc3ccc(OC)c(OC)c32)c1OC` came in with a TGI above 100 µM.

As to `Cn1cnc([N+](=O)[O-])c1Sc1nnnn1C`, the TGI is above 100 µM.

For the compound `NC(=S)Nc1ccc2c(c1)oc1ccccc12`, the TGI was above 100 µM.

The compound `C=CC(C)(C)C1(CC(OC)OC)C(=O)N(C)c2ccccc21` (stereo not given) came in with a TGI above 25 µM.

For `COc1cccc(Sc2ccc([N+](=O)[O-])c3no[n+]([O-])c23)c1`, the GI50 is 37.4 µM and the TGI is above 100 µM.

`CCCc1n[nH]c(=O)n1N1C(=O)C=CC1=O`: the TGI was above 100 µM.

Compound `Cc1nc(N)sc1C(=O)Nc1ncn[nH]1` showed a TGI above 100 µM.

`COCCOC(C)C(=O)C(O)S(=O)(=O)O` (stereo not given): the TGI is above 100 µM.

For `CCNc1cc2oc(=O)cc(C(F)(F)F)c2cc1C`, the TGI is above 100 µM.

In turn, `CC(C)(C)c1cc(C(=O)C2Cc3ccccc3C(=O)O2)cc(C(C)(C)C)c1O` (stereo not given) registered a TGI of 28.2 µM.

With `S=c1nc(C(c2ccccc2)c2ccccc2)[nH][nH]1`, the TGI is above 100 µM.

The compound `Nc1nc2c(c(-c3ccccc3Cl)n1)COC/C2=C\c1ccccc1Cl` showed a TGI of 30.8 µM.

Compound `C[N+](C)=c1ccc2nc3c(ccc4ccccc43)oc-2c1` had a TGI of 29.3 µM.

As to `O=C(O)CN1CCCC(Cc2c[nH]c3ccccc23)C1` (stereo not given), the TGI is above 100 µM.

In the case of `CC(C)(C)c1ccc(O)c(C(c2ccc([N+](=O)[O-])cc2)c2cc(C(C)(C)C)ccc2O)c1`, the TGI worked out at 6.85 µM.

`C/C(=N/NC(=S)N(C)C)c1ccccc1O`: the TGI was above 100 µM.

In the case of `Cc1cc(Br)cc(C)c1NC(=O)C(=O)C(C(=O)c1ccncc1)C1OC(=O)c2ccccc21` (stereo not given), the TGI is above 100 µM.

On to `Clc1ccc2nc3n[nH]c(Cl)c3nc2c1`, for which the TGI is above 100 µM.

In the case of `Nc1ncnc2c1c(-c1ccc(Oc3ccccc3)cc1)nn2C[C@H]1SSC[C@@H]1O`, the GI50 is 2.39 µM and the TGI worked out at 26.6 µM.

Consider `C=C(C)[C@@H]1CC[C@]2(COCCCNCCCN)CC[C@]3(C)[C@H](CC[C@@H]4[C@@]5(C)CC[C@H](OCCCN)C(C)(C)[C@@H]5CC[C@]43C)[C@@H]12`, for which the GI50 is 0.939 µM and the TGI stood at 1.71 µM.

`CC(=O)NNc1nc(C)c(C(/C=C/c2ccc([N+](=O)[O-])cc2)=N/NC(N)=O)s1` came in with a TGI above 100 µM.

Turning to `O=C(OCC1CCCN2CCCCC12)c1cccnc1` (stereo not given), the TGI is above 100 µM.

Take `N=c1n(CC(=O)NC23CC4CC(CC(C4)C2)C3)c2ccccc2n1CC(=O)NC12CC3CC(CC(C3)C1)C2`: the TGI came to 6.35 µM.

`Nc1ccc2nc(Nc3ccc(Cl)c(Cl)c3)cnc2c1`: the TGI was determined as 58.6 µM.

In turn, `Cc1ccc(S(=O)(=O)NC(=O)NCCc2ccc(O)c(O)c2)cc1` returned a TGI above 100 µM.

`C/C(=N/NC(=S)Nc1cccc(Cl)c1)c1ccccn1`: the TGI is 16 µM.

With `Cn1cc(-c2nc(-c3c[nH]c4ccncc34)cs2)c2ccccc21`, the GI50 was 1.67 µM and the TGI was found to be 3.07 µM.

For `CC(CN(C)C)S(=O)(=O)c1ccc(-c2cnc(N)c(C(=O)Nc3ccccc3)n2)cc1` (stereo not given), the GI50 was 11.1 µM and the TGI is above 73.8 µM.

Take `O=C1NC(O)c2ccccc2O1` (stereo not given): the TGI is above 100 µM.

Compound `COC1(OC)C2(Cl)C(Cl)=C(Cl)C1(Cl)C1c3ccc(C(C)=O)c4cccc(c34)C12` (stereo not given) gave a TGI above 100 µM.

`COc1cc(N)c2[nH]c3c(C)ccc(C)c3c2c1`: the TGI was above 100 µM.

Consider `C=CCNc1nc(O)c(/C=C2\C=Nc3ncccc32)s1`, for which the GI50 is 2.19 µM and the TGI is above 100 µM.

Turning to `CCCCCCCN(CCCCCCC)C(=N)c1ccnc2ccccc12`, the GI50 is 1.51 µM and the TGI is 3.01 µM.

`CCO/C(CCn1[nH]c(=O)c(Cl)c(Cl)c1=O)=N\NC(=O)C(=O)NN` registered a TGI above 100 µM.

In the case of `COC(=O)c1ccccc1NC(=S)NN(C)C`, the TGI was above 100 µM.

Consider `Clc1ccccc1[C@@H]1C[C@@H]2Cc3cc(Br)c4ccccc4c3N1O2`, for which the GI50 is above 100 µM and the TGI is above 100 µM.
